Results as given in paper PMC4336329 (PLoS ONE, 2015).
Hit rate of the full screen: of about 310,000 compounds, about 14,000 (4.5%) showed an effect of 50% or more. The effect is printed as a negative number. Some of the results follow.

Target: human ether-à-go-go-related gene (hERG) potassium channel (human, UniProt Q12809)
Experiment: primary screen, population patch clamp on CHO cells stably expressing hERG
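Also: peak tail current of the secondary pulse compared with the same well before compound.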

Sequence of human ether-à-go-go-related gene (hERG) potassium channel (Q12809 whole entry, looked up): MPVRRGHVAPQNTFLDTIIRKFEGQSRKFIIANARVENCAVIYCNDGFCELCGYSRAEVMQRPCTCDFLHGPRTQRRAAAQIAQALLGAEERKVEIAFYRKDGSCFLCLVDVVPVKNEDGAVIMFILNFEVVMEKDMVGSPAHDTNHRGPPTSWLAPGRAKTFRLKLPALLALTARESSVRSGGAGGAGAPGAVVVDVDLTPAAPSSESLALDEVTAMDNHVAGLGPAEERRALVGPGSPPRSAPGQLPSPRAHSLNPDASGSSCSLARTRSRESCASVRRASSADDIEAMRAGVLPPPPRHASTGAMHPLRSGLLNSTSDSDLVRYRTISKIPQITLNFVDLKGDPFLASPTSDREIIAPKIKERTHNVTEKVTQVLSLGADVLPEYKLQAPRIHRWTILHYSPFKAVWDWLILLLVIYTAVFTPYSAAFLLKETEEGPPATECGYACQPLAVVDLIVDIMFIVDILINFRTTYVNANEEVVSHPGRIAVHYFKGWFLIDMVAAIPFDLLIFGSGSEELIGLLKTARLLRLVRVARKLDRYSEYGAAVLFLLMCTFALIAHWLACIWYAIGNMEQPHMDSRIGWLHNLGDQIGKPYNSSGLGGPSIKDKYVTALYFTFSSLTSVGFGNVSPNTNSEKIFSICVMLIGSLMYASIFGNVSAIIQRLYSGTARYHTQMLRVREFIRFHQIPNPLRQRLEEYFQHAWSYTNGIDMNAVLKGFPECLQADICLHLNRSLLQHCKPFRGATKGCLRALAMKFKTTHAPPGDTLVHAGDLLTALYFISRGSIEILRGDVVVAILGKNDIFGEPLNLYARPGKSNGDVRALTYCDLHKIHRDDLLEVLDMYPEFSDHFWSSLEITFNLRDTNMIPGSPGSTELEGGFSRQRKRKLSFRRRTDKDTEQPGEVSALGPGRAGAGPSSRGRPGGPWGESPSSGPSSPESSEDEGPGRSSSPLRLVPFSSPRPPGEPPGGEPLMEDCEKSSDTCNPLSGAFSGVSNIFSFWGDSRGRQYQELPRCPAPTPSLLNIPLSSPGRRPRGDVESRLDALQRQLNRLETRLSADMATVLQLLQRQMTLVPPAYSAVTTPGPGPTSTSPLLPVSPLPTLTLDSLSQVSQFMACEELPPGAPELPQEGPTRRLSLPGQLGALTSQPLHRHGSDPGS

| SMILES | hERG current change (%, negative = inhibition) at 10uM [%] |
| --- | --- |
| CCOc1ccc(S(=O)(=O)N2CCCC(C(=O)Nc3cccc(C)c3)C2)cc1 (stereo not drawn) | 25.1 |
| CCOC(=O)[C@H]1[C@H]2COc3ccccc3[C@@H]2N2C(=O)c3cc(OC)ccc3NC(=O)[C@@]12C | -15.4 |
| COC(=O)Nc1ccc(S(=O)(=O)N2CCCC(C(=O)N3CCCCC3)C2)cc1 (stereo not drawn) | 2.2 |
| O=C(OCC(=O)N1CCCC1)c1cccc(Br)c1 | 10.6 |
| CCCC(=O)Nc1ccc(N2CCOCC2)cc1 | 9.8 |
| COc1cccc(C(=O)N2CCC3(CC2)OCCO3)c1 | 20.3 |
| C=CCC1(CC=C)CCCN1C(=O)Cn1nnnc1CN(C)C(C)C | 20.3 |
| CCn1c(=O)n(CC(=O)N2CC(C)CC(C)C2)c(=O)c2ccccc21 (stereo not drawn) | -7.45 |
| Nc1nc(SCCO)[nH]c(=O)c1NC(=O)c1ccco1 | 24.2 |
| CNc1ccc(/C=C(\C#N)c2ccccn2)cc1[N+](=O)[O-] | 23.3 |
| Cc1ccc(NC(=O)Cn2cc(C=O)c3ccccc32)cc1C | 11.4 |
| COC(=O)C1CN(C(=O)COc2cc(C)cc(C)c2)c2ccccc2O1 (stereo not drawn) | 21.3 |
| CCCCS(=O)(=O)c1sc2nc3c(cc2c1N)CCCC3 | 6.17 |
| CC1(C)C[C@@H]1C(=O)N/C(=C\CCCCSC[C@H](N)C(=O)O)C(=O)[O-].[Na+] | 6.5 |
| Cc1ccc(C(=O)c2ccc(C)cc2)cc1 | 20.3 |
| COc1cc(OC)cc(C(=O)NNc2nc3cc4c(cc3s2)OCO4)c1 | -6.81 |
| CCc1ccc(NC(=O)C2CCCN2C(=O)NC2CCCCC2)cc1 (stereo not drawn) | 17.5 |
| O=C(CNC(=O)C1CCCCC1)NC1CCCCC1 | 14 |
| O=[N+]([O-])c1cc(Cl)cc(/C=N/n2cnnc2)c1O | 8.17 |
| CCN(CC)CCCNc1nc2ccccc2c2nc(-c3ccncc3)nn12 | -56.6 |
| CC(C)CCn1c(CN2CCN(c3cccc(Cl)c3)CC2)nc2c1c(=O)n(C)c(=O)n2C | -5.6 |
| COc1cccc(NC(=S)N2CCN(C/C=C/c3ccccc3)CC2)c1 | -44.7 |
| Cc1ccc(S(=O)(=O)NCC(=O)N(c2ccccc2)C(C(=O)NCc2ccccc2)c2ccco2)cc1 (stereo not drawn) | -6.04 |

| SMILES | hERG current change (%, negative = inhibition) at 10uM [%] |
| --- | --- |
| COc1ccc(NC(=O)Nc2nnc(-c3ccncc3)s2)cc1 | 51.5 |
| COc1ccc(C(=O)NC(=S)NNC(=O)[C@H]2C[C@@H]2c2ccccc2)cc1OC | 14 |
| CC(C)(C)c1ccc(OCCC(=O)OCC(=O)NC(=O)NC2CCCC2)cc1 | 10.7 |
| Cc1ccc(S(=O)(=O)N2CCOCC2)cc1C(=O)OCC(=O)NC1CCS(=O)(=O)C1 (stereo not drawn) | 9.67 |
| CC(=O)Nc1ccc(OCC[n+]2cccc(C(N)=O)c2)cc1.[Br-] | 20 |
| COc1ccccc1OCCOCCOc1ccc(C)cc1Br | 5.98 |
| CCN(CC)c1ccc(C(=O)N2CCN(Cc3ccccc3)CC2)cc1 | -37.8 |
| Cn1c(C(=O)O)c(S(=O)(=O)c2ccc(Cl)cc2)c2ccccc21 | 28.7 |
| CCOC(=O)N1CCC(NC(=O)c2ccc(OC)c(CN3CC(=O)N4CCCC4C3=O)c2)CC1 (stereo not drawn) | 5.49 |
| COC(=O)C1CCN(c2ccc([N+](=O)[O-])cc2[N+](=O)[O-])CC1 | -0.88 |
| CC1=C(C(=O)OCc2cc(C)on2)N2C(=O)[C@@H](NC(=O)OCc3cc(C)on3)[C@H]2SC1 | -13.2 |
| Cc1ccc(N(CC(=O)Nc2c(C)n(C)n(-c3ccccc3)c2=O)S(C)(=O)=O)c(C)c1 | 9.22 |
| CC(C)c1ccc(CCNC(=O)c2ccc([N+](=O)[O-])cc2)cc1 | -4.12 |
| Cc1ccc(S(=O)(=O)NCC(=O)N2CCN(c3ccccn3)CC2)cc1 | -14.6 |
| CC1(C)NC(=O)N(CCCCOc2ccc(Br)cc2Cl)C1=O | -25.4 |
| CC1CCN(C(=O)COC(=O)CCc2c[nH]c3ccccc23)CC1 | 9.1 |
| CCC1CCCCN1C(=S)NC(=O)c1cc(Br)ccc1Cl (stereo not drawn) | -6.81 |
| CC(=C/c1ccccc1)/C=N/n1cnnc1 | -33.7 |
| CC(=O)Nc1cccc(NC(=O)CSc2ccc(-c3ccccn3)nn2)c1 | 14.1 |
| O=c1c2ccccc2oc2cc(-c3ccc(CN4CCOCC4)cc3)ccc12 | 2.09 |
| COc1ccc(Cl)cc1NC(=O)CCc1ccccc1 | -5.7 |
| CC(C)(C)c1ccc(C2/C(=C(\O)c3ccc4c(c3)OCCO4)C(=O)C(=O)N2CCCN2CCOCC2)cc1 (stereo not drawn) | 9 |
| CCC(=O)N(CCC1(c2ccccc2OC)CCOC(C(C)C)C1)Cc1ccco1 (stereo not drawn) | -24.4 |

| SMILES | hERG current change (%, negative = inhibition) at 10uM [%] |
| --- | --- |
| COC(=O)c1cc(OC)c(OC)cc1NC(=O)c1cc(OC)cc(OC)c1 | 21.4 |
| Cc1ccc(C(=O)Nc2ncc(Cc3ccc(SC(F)F)cc3)s2)cc1 | -11.3 |
| CCCOc1ccc(N2CC(C(=O)Nc3ccc4c(c3)OCO4)CC2=O)cc1 (stereo not drawn) | 10.9 |
| Cc1ccc(CSc2nnc(NC(=O)Cn3cnc4ccccc4c3=O)s2)cc1 | 7.82 |
| FC(F)(F)c1cnc2c(c1)Nc1ccccc1S2 | -8.83 |
| NC(=O)c1ccsc1N | 16.3 |
| CC1CCCCN1CCNC(=O)CN1C(=O)COc2ccccc21 (stereo not drawn) | -1.86 |
| Cc1cccc(CCNC(=O)C2CCC(CNS(=O)(=O)c3cccs3)CC2)c1 (stereo not drawn) | 7.67 |
| COC(=O)c1c(C)[nH]c(C(=O)C(C)[N+]23CCN(CC2)CC3)c1C.[Cl-] (stereo not drawn) | 3.78 |
| COc1ccc(C(=O)O)cc1F | 16 |
| N/C(COc1ccccc1)=N\NC(=O)c1cccnc1Oc1ccccc1 | 6.43 |
| CC(CNC(=O)c1cc(COc2c(F)cccc2F)on1)c1ccccc1 (stereo not drawn) | -1.55 |
| Cc1nc2nc[nH]n2c(=O)c1NS(=O)(=O)c1ccc(F)cc1 | 21.8 |
| O=C(CSc1nnc(NC(=O)c2c(F)cccc2F)s1)NC1CCCCC1 | 6.01 |
| Cc1ccc(OCCNS(=O)(=O)c2cccs2)cc1 | 1.75 |
| CCCCn1nnnc1NCc1ccc(C)cc1 | 13.2 |
| Cc1cc(C)c(S(=O)(=O)N(C)Cc2cnn(C)c2)c(C)c1 | 5.95 |
| CCc1ccc(-c2csc(NC(=O)c3cccnc3)n2)cc1 | -3.93 |
| Cc1ccc(OCc2cc(C(=O)N3CCc4[nH]cnc4C3c3ccccn3)no2)cc1C (stereo not drawn) | -13.8 |
| O=[N+]([O-])c1ccc(Sc2ccccc2)nc1 | 8.82 |
| CC(=O)N1CCN(C(=O)c2ccc(-c3ccccc3Cl)o2)CC1 | -20 |
| CNC(=O)CCCN1C(=O)c2ccccc2Sc2ncccc21 | 23.9 |
| Cc1nc(C)c(-c2ccc(SCc3ccc(Cl)cc3)nn2)s1 | -14.7 |

| SMILES | hERG current change (%, negative = inhibition) at 10uM [%] |
| --- | --- |
| C=CCn1c(SCC(=O)N2CC(=O)Nc3ccccc32)nc2scc(-c3ccccc3)c2c1=O | -1.72 |
| CC(C)c1ccccc1OS(N)(=O)=O | 5.49 |
| COc1ccc(CC(=O)NC(C)c2nnc(SCC(=O)c3ccc(Br)cc3)n2C)cc1 (stereo not drawn) | -9.89 |
| Cc1cccc(N(CC(=O)N2CCCCCC2)S(C)(=O)=O)c1 | 20.5 |
| COc1cc2c(C#N)c(N3CCN(C)CC3)nc(N)c2c(N)n1 | -7.71 |
| COc1ccc(S(=O)(=O)N2CCC(NC(=O)C(Cc3cccc(OC)c3OC)NC(C)=O)CC2)cc1 (stereo not drawn) | 7.12 |
| CCOC(=S)SCc1cn2ccc(C)cc2n1 | -44.5 |
| Cc1ccc(C(=O)NCCCN2CCOCC2)cc1 | 3.81 |
| CCOC(=O)c1c(C)[nH]c(C)c1S(=O)(=O)NCCc1sccc1C | -0.705 |
| Cc1ccccc1-c1nc2c(s1)CCc1onc(-c3ccc(Cl)cc3)c1-2 | 12.1 |
| c1ccc(Cn2nnc3c(N4CCc5ccccc54)ncnc32)cc1 | 8.39 |
| CC(=O)N1c2ccc(S(=O)(=O)N3CCCCC3)cc2CC1C(=O)Nc1ccc(C)cc1 (stereo not drawn) | -2.69 |
| CCOc1ccc(-c2c(C(=O)N/N=C(\C)c3ccncc3)nnn2-c2nonc2N)cc1 | 11.8 |
| Cc1ccc(C2N3CC4([N+](=O)[O-])CN2CC([N+](=O)[O-])(C3)C4(C)C)cc1 (stereo not drawn) | 12.2 |
| COc1ccccc1N1CCN(c2ncnc3sc(C(=O)NCC4CCCO4)c(C)c23)CC1 (stereo not drawn) | -5 |
| COC(=O)c1c(NC(=O)C(=O)NCCCN2CCOCC2)sc2c1CCC2 | -4.55 |
| COc1ccc(C(NC(=O)C(C)C)c2c(O)ccc3ccccc23)cc1OC (stereo not drawn) | -15 |
| Cc1cccc(NC(=O)c2ccc(S(=O)(=O)N3CC(C)OC(C)C3)cc2)n1 (stereo not drawn) | -2.03 |
| O=C(O)c1ccccc1OCc1ccccc1Cl | 6.55 |
| CCN(CC)c1ncnc2scc(C3COc4ccccc4O3)c12 (stereo not drawn) | -8.77 |
| Cc1cccc(N2CCN(C(=O)C3CCCCC3)CC2)c1C | -24.8 |
